In PMC4336329 (PLoS ONE, 2015):
Screen size: about 310,000 compounds; about 14,000 (4.5%) showed an effect of 50% or more. Effects have a minus sign here. Some of the results follow.

Target: human ether-à-go-go-related gene (hERG) potassium channel (human, UniProt Q12809)
Assay: primary screen, population patch clamp on CHO cells stably expressing hERG
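Further: peak tail current of the secondary pulse compared with the same well before compound.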

Chain of human ether-à-go-go-related gene (hERG) potassium channel (Q12809 whole entry, looked up): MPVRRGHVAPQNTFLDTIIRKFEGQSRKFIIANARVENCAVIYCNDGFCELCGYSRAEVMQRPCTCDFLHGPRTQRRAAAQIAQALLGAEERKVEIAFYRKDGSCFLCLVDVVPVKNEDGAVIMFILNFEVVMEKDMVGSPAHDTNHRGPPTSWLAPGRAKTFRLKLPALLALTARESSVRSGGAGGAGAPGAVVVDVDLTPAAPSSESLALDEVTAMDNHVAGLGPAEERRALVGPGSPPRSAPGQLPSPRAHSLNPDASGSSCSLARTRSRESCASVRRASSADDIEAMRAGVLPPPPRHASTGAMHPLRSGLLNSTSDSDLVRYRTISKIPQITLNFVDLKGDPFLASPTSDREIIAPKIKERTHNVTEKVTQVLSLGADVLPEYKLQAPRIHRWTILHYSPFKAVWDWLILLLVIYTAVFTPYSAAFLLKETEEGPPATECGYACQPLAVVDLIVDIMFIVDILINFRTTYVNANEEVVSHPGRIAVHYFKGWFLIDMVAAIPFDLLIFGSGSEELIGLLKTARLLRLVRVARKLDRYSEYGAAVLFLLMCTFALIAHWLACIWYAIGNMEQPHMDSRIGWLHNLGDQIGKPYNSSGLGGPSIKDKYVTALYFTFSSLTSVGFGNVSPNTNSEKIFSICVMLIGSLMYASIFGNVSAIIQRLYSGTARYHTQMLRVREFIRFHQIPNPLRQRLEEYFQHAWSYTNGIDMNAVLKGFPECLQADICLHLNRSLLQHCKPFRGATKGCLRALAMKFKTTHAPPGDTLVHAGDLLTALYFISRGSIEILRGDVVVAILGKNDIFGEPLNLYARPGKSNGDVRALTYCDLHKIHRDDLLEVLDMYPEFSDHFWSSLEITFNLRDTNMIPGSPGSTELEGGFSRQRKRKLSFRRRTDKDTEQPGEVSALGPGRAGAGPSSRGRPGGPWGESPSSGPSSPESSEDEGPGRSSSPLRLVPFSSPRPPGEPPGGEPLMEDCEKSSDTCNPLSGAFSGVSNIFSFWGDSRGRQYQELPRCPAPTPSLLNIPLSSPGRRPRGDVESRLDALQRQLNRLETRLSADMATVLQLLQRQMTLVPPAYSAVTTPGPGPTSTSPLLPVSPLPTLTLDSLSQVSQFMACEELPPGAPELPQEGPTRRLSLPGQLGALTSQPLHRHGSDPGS

Compound | hERG current change (%, negative = inhibition) at 10uM [%]
Cc1ccc(C(=O)Nc2nncs2)cc1S(=O)(=O)N1CCOCC1 | -3.86
O=C(N1CCCCCC1)n1c(Cc2ccccc2)nc2ccccc21 | -30.5
COc1ccc(C(=O)N2CC(=O)N(CCc3ccccc3)C(=O)C2)cc1OC | -15.1
O=C(COC(=O)/C=C/c1ccco1)Nc1ncc(C(F)(F)F)cc1Cl | -11.6
COc1ccc(C(=O)c2c[nH]c(C(=O)NCc3ccco3)c2)cc1 | 5.33
CCOC(=O)c1cnc(-n2nc(C)cc2C)[nH]c1=O | 3.62
O=C(O)c1ccc2c(c1)C(=O)N(C(Cc1ccc(O)cc1)C(=O)O)C2=O (centres unmarked) | -6.54
CCc1nnc(NC(=O)CSC(=S)N2CCOCC2)s1 | 14.6
COCCCn1c(-c2ccc(OC)cc2)cc(C(=O)NC2CCCCCCC2)c1C | -19.6
Cc1ccc(C)c(NC(=O)C(Sc2cccc[n+]2[O-])c2ccccc2)c1 (centres unmarked) | 0.828
COc1cc(C(=O)O)cc(NC(=O)c2cccs2)c1OC | 13
CCN(Cc1cc(=O)[nH]c2ccccc12)C(=O)C(C)C | -2.37
COc1cccc(C(c2c(N)n(C)c(=O)n(C)c2=O)C(C)[N+](=O)[O-])c1 (centres unmarked) | 6.06
CCOC(=O)N1CCN(C(=O)c2cc(COc3ccc(F)cc3F)on2)CC1 | -17.1
CCN(CC)S(=O)(=O)c1ccc(N2CCCC2)c(NC(=O)c2ccccc2OC)c1 | -65.7
CCCc1cc(C(=O)Nc2nccs2)cs1 | -10.3
CS(=O)(=O)N1CCN(c2ccccc2NC(=O)C(c2ccccc2)c2ccccc2)CC1 | 3.92
Cc1cccc(C)c1NC(=O)N1CC(C)OC(C)C1 (centres unmarked) | 39
O=C(Cn1c(=O)n(-c2ccc(F)cc2)c(=O)c2sccc21)N1CCCC1 | -0.0328
COc1ccccc1Cn1c(=S)[nH]c2cc(C(=O)NCCN(C)C)ccc2c1=O | -4.42
Cc1cc2cc(CN(CCN(C)C)C(=S)NCc3ccco3)c(=O)[nH]c2cc1C | -43.8
Cc1c(C)n(C)c2ccc(C(=O)NCCc3ccco3)cc12 | -4.88
Cc1ccc(C(=O)NC(=S)N(C)Cc2ccccc2)cc1 | 17.3

Compound | hERG current change (%, negative = inhibition) at 10uM [%]
O=C(Cc1ccccc1)NCC1CCCO1 (centres unmarked) | 2.17
CCCn1c(=O)c2ccccc2n2c(SCc3nnc(-c4ccccc4Br)o3)nnc12 | -0.727
COC(=O)CC1=NN(c2nc3ccccc3s2)C(=O)/C1=C/N(C)C | -18.4
O=C(CC1C(=O)NCCN1Cc1cccc(Oc2ccccc2)c1)NCCc1ccccn1 (centres unmarked) | 1.32
Cc1ccc(C(=O)N2CCC(C(N)=O)CC2)cc1C | 2.63
Oc1ccc(/C=C/c2cnccn2)cc1 | 6.91
COc1ccc(N/C=C/C(=C(C#N)C#N)N(C)C)cc1 | 14.5
COc1ccc(N=C(N)SCc2ccccn2)cc1.Cl | -30.9
CCc1noc(C)c1C(=O)Nc1nnc(C(CC)CC)s1 | -16.9
O=C(Cc1cc(=O)[nH][nH]1)N/N=C/c1c(Cl)cccc1Cl | 15.9
COc1ccc(/C=N\NC(=O)c2ccccc2)cc1COc1ccccc1 | 20.6
CN(C)CCCn1c2c(c(SCC(=O)Nc3nccs3)nc1=O)CCC2 | -9.32
Cc1cc(C(=O)OCC(=O)Nc2ccc(F)c(F)c2)c(C)o1 | 14.7
CC12CCC(C(=O)Nc3ccccc3Cl)([C@H](Br)C1=O)C2(C)C (some centres unmarked) | 15.9
COc1ccc(OC)c(C(=O)CSc2nccc(-c3ccc(Br)cc3)n2)c1 | 3.37
Cn1c(-n2c(CCCN3C(=O)c4ccccc4C3=O)nc3ccccc3c2=O)nc2ccccc21 | -12.4
N#C/C(=C(/O)c1ccc(C(=O)c2ccccc2)cc1)c1nc2ccccc2[nH]1 | 2.95
O=C(O)C1CCN(S(=O)(=O)N2CCOCC2)CC1 | -3.68
COc1ccc(CNC(=O)CN(C(=O)CCC(=O)Nc2nccs2)c2cccc(C)c2)cc1 | 33.3
CCCN(CCC)CCCNC(=O)c1cn(CCOC)c(=O)c2c1c1ccccc1n2C | -10.6
O=C(O)C(Cc1ccccc1)N1C(=O)C2CCCCC2C1=O (centres unmarked) | 13.3
COc1ccc(-c2cnc(SCCNC(=O)c3ccc4c(c3)OCO4)[nH]2)cc1 | -5.44
COc1ccc(C(=O)c2c[nH]c(C(=O)N=CN(C)C)c2)cc1 | 10.2

Compound | hERG current change (%, negative = inhibition) at 10uM [%]
CCn1nc(NC(=O)c2cccs2)c2cc3ccccc3nc21 | -21
CC(C)CNc1ncnc2c1cnn2Cc1ccccc1Cl | -12.8
C=C(C)C(=O)N1CC2(CC(c3cccc(NC(=O)COc4ccc(Cl)cc4)c3)=NO2)C[C@@H]1C(N)=O (some centres unmarked) | -15.3
Cc1ccc(Oc2c(C=O)c3ccccc3n2C)cc1 | -8.24
O=C(O)c1cccc(S(=O)(=O)Nc2ccccc2N2CCOCC2)c1 | -22
Cc1ccc(Oc2cc(NC(=O)CCCn3nc([N+](=O)[O-])c(Cl)c3C)cc([N+](=O)[O-])c2)cc1 | 4.54
C/C(N)=C(/C#N)C(=O)COC(=O)Cc1coc2ccc3ccccc3c12 | 24.3
CCC(=O)c1ccc(OCC(O)CN2CCN(c3ccc(F)cc3)CC2)cc1 (centres unmarked) | -26.8
CCCn1ncc(CN2CCC(n3nccc3NC(=O)c3ccccc3Cl)CC2)c1C | -75.8
Nn1c(COc2cccc(Br)c2)nnc1SCC(=O)N1CCc2ccccc2C1 | -27
C=CCNC(=O)Cc1c(OC)ccc2cc(Br)ccc12 | -0.948
O=C(N/N=C/c1cccc([N+](=O)[O-])c1)c1cc(-c2ccccc2)nc2ccccc12 | 7.64
CCN(CC)S(=O)(=O)c1cc(C(=O)Nc2cc(C)[nH]n2)ccc1Cl | -10.3
COc1ccc(NS(=O)(=O)c2ccc3c(c2)CCC(=O)N3)c(OC)c1 | -10.4
COCCNC(=S)N/N=C/c1ccc(N2CCOCC2)cc1 | 10.3
O=C(CSCc1ccco1)Nc1cc(C(F)(F)F)ccc1N1CCOCC1 | -49
CCOC(=O)N/N=C(C)/C=C/c1ccccc1 | 15.7
CCN(C(=O)c1ccnc(C(C)(C)C)c1)c1ccccc1 | -4.86
COc1ccc(S(=O)(=O)Cc2ccc(C(=O)N3CCC(C(N)=O)CC3)o2)cc1 | 11.1
Cc1c(CCO)c(=O)oc2n[nH]c(-c3ccccc3)c12.Cl | 6.37
C/C(Cn1nnc([N+](=O)[O-])n1)=N\NC(=O)c1ccccc1Cl | -2.2
Cc1cc(=O)nc2c3ccccc3n(CC(=O)NCCCN3CCOCC3)n12 | 17.6
O=C(O)CCS(=O)(=O)c1nc(-c2cccs2)cc(C(F)(F)F)n1 | 0.386

Compound | hERG current change (%, negative = inhibition) at 10uM [%]
CCOC(=O)c1c(NC(=O)Cc2cccs2)sc(C(=O)NC2CCCCC2)c1C | 13
CCOc1ccc(C(=O)OCC(=O)Nc2cccc(S(=O)(=O)N3CCCC3)c2)cc1 | -8.49
CCc1nnc(NC(=O)C2CCCN2C(=O)Nc2ccc(C)cc2)s1 (centres unmarked) | 13.3
Cc1cc(C)nc(NC(=NCCc2c[nH]c3ccccc23)NC(=O)c2ccco2)n1 | 7.46
CCOC(=O)C1CCN(Cc2cccc(OCc3ccccc3)c2)CC1.O=C(O)C(=O)O | -43.2
O=C(O)CNC(=O)c1ccc(OC(F)F)cc1 | 7.84
CC(=O)NCCC(=O)Nc1nc2ccc(Oc3ccccc3)cc2s1 | -19.8
O=[N+]([O-])c1cccc(-c2cc(C(F)(F)F)n3nc(-c4ccccc4)cc3n2)c1 | 4.94
Cc1cc(C)c(C(=O)Nc2ccc(S(=O)(=O)Nc3onc(C)c3C)cc2)c(C)c1 | 0.525
Cc1ccc(Oc2c(F)c(F)nc(N3CCCC3)c2F)cc1 | -8.46
CCOC(=O)/C(C#N)=C1\Nc2ccccc2N=C1N(CC(C)C)CC(C)C | 10.3
CC(C)OC(=O)N(C)c1ccc(C(O)(C(F)(F)F)C(F)(F)F)cc1 | -19.3
CCCn1c(C(O)c2ccc(C)cc2)nc2ccccc21 (centres unmarked) | 15.8
CC(=O)Nc1ccc(S(=O)(=O)Nc2nccc(C)n2)cc1 | -20.2
CCOc1ccc(NC(=O)Cc2cccc3ccccc23)c([N+](=O)[O-])c1 | 7.66
CCN(CC)CCNC(=O)CCCNC(=O)Cn1cnc2sc(C)c(C)c2c1=O | -6.02
O=C(Nc1ccccc1C(F)(F)F)c1cc2ccccc2o1 | 15.8
C=CCn1cccc(C(=O)Nc2ccc(OCC)cc2)c1=O | -13.6
CCOC(=O)/C=C(\C)N1N=C(c2ccccc2)CC1c1ccccc1 (centres unmarked) | -1.77
CC(C)c1ccc(N=Cc2c(O)n(C3CC3)c(=S)[nH]c2=O)cc1 | 2.22
